# Test results: PubChem BioAssay AID1460 (National Center for Advancing Translational Sciences (NCATS), 2008)
# Values joined by “and” are separate entries in the source; they are usually repeats but may differ in a detail not shown here. Identical values can stand only once. In all, about 270,000 compounds went through this assay and about 5,800 (2.1%) were called active. The inconclusive results got no clear call from the source; some entries with a clear call stand among them for comparison. Calls follow the shape of the dose curve; as a rule, active = well fitted inhibition curve with a large enough effect; inconclusive = small, poorly fitted or top-dose-only effect; inactive = flat fitted curve, though single readings scatter. Potencies beside an inconclusive call are fits to weak or partial responses and may not hold up.
# Molecular target: Microtubule-associated protein tau (Homo sapiens) (UniProt P10636)
# Assay: qHTS for Inhibitors of Tau Fibril Formation, Thioflavin T Binding; also: nearly all actives have a fitted effect of over 55% in size
# Details: recombinant tau K18 P301L (four-repeat tau fragment), heparin-induced fibrillization, ThT fluorescence; series mostly up to 57.4 µM
# Method in brief: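 Heparin-induced fibrillization of the P301L-mutant K18 repeat-domain fragment of human tau was followed by ThT binding in quantitative high-throughput format.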
# Potency is read from the fitted curve at half-maximal effect; tags tell the direction and shape of the fitted curve.
# Chain of UniProt P10636 (P10636 whole entry, looked up): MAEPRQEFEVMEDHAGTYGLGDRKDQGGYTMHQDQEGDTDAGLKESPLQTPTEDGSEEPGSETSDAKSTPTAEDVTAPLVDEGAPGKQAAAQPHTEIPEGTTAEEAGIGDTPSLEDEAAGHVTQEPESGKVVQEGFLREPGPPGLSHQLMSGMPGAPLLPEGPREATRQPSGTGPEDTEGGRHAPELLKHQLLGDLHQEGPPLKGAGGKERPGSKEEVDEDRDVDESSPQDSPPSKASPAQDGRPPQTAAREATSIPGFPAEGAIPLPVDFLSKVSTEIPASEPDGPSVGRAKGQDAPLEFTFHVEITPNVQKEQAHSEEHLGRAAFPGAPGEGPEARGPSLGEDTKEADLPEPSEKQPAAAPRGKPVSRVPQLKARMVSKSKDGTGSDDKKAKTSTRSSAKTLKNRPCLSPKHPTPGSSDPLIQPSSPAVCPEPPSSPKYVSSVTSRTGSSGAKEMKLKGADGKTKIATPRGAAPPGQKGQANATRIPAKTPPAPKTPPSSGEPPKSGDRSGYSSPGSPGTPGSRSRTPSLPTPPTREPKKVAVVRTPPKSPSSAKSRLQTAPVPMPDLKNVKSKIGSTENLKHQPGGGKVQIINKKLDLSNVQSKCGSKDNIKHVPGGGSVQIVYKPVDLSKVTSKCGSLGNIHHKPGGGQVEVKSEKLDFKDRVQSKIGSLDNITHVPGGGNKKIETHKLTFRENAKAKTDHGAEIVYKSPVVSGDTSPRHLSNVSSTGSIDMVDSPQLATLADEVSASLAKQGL
row,Structure (SMILES),Potency
1,COc1ccc(NCc2nc3ccccc3n2CCOc2ccccc2C)cc1,"inconclusive: 15.8 µM [inhibitor, partial curve]"
2,COc1cccc(NC(=O)c2sc(-n3nc(C)c(Cc4ccccc4Cl)c3C)nc2C)c1,inactive
3,CCO/C=C1/C(=O)N(c2ccc(OC)cc2)C(=O)c2ccccc21,inactive
4,CC(C)(C)c1ccc(OCc2ccc(C(=O)N/N=C3\CC4CC=CC34)cc2)cc1 (stereo unspecified),"inconclusive: 7.94 µM [inhibitor, partial curve]"
5,COc1ccc2nc(NC(=O)c3ccc(-n4nc(C)cc4C)cc3)sc2c1,"inconclusive: 0.631 µM [inhibitor, full curve]"
6,Cc1nc(Nc2ccc(S(N)(=O)=O)cc2)sc1C(=O)Nc1ccccc1,"inconclusive: 1 µM [inhibitor, full curve]"
7,Cc1cc(C)c(C#N)c(Nc2ccccc2)n1,inactive
8,Cc1nc(C(=O)Nc2ccccc2)sc1C(=O)Nc1ccccc1,"inconclusive: 17.8 µM [inhibitor, partial curve, poor fit]"
9,Cc1cc(Nc2ccccc2)n(C(=O)c2ccc(N)cc2)n1,"inconclusive: 28.2 µM [inhibitor, single point]"
10,CC1CCN(CCCNC(=O)c2ccc3c(=O)n(Cc4ccc(Cl)cc4)c(=S)[nH]c3c2)CC1,inactive
11,CCc1nnc(NS(=O)(=O)c2ccc(NC(=S)NC(=O)/C=C/c3ccc(F)cc3)cc2)s1,"inconclusive: 20 µM [inhibitor, partial curve, poor fit]"
12,COc1ccc2cc(CCNC(=O)c3cccc([N+](=O)[O-])c3)c(=O)[nH]c2c1,"inconclusive: 22.4 µM [inhibitor, partial curve]"
13,COc1ccc(N(C)C(=O)Nc2ccc3nsnc3c2)cc1,"inconclusive: 11.2 µM [inhibitor, partial curve]"
14,CC1CCCN(c2ccc(C(=O)NCc3ccc4c(c3)OCO4)cc2[N+](=O)[O-])C1 (stereo unspecified),"inconclusive: 10 µM [inhibitor, partial curve]"
15,Cc1ccc2c(c1)c1c(n2C)-c2[nH]ncc2CC1,"inconclusive: 14.1 µM [inhibitor, partial curve]"
16,Oc1ccc(Br)cc1/C=N/Nc1ncc(-c2ccccc2)cn1,"inconclusive: 1.41 µM [inhibitor, full curve]"
17,CCCCC1=CC2=C(OC(C)=O)C(=O)C(C)(OC(=O)CC)C(=O)C2=CO1 (stereo unspecified),"inconclusive: 28.2 µM [inhibitor, partial curve]"
18,CCOC(=O)C1CCCN(c2nc3ccccc3nc2C(C#N)C(=O)OC(C)COC)C1 (stereo unspecified),"inconclusive: 17.8 µM [inhibitor, single point]"
19,O=C(OCc1ccc2c(c1)OCO2)c1cccc(S(=O)(=O)N2CCCCC2)c1,"inconclusive: 4.47 µM [inhibitor, single point]"
20,COC(=O)c1c(SC)nc2ccccc2c1OCc1cccc(C)c1,"inconclusive: 28.2 µM [inhibitor, single point]"
21,Cc1ccc2oc(=O)c3cc(C(=O)N4CCN(C(=O)c5ccco5)CC4)sc3c2c1,"inconclusive: 3.98 µM [inhibitor, partial curve, poor fit]"

row,Structure (SMILES),Potency
1,O=C(Nc1ccc(F)cc1)c1ccc(-n2cnc3cccnc32)cc1,"inconclusive: 5.62 µM [activator, full curve]"
2,COc1ccc(OC)c(/C=C/C(=O)N2CCCc3ccccc32)c1,"inconclusive: 10 µM [inhibitor, partial curve]"
3,Cc1cc(NC(=O)c2cc(-c3ccncc3)nc3c(C)cccc23)no1,"inconclusive: 20 µM [inhibitor, partial curve]"
4,O=C1C2C3C=CC(CNS(=O)(=O)c4ccccc4[N+](=O)[O-])(O3)C2C(=O)N1c1ccccc1 (stereo unspecified),"inconclusive: 25.1 µM [inhibitor, single point]"
5,Cc1ccc(N(C)C(=O)Cn2nc(Cc3ccncc3)c3ccccc3c2=O)cc1C,inactive
6,COCCn1c(C)cc(O)c(C(c2ccccc2)N2CCN(c3ccc(F)cc3)CC2)c1=O (stereo unspecified),"inconclusive: 10 µM [inhibitor, partial curve]"
7,O=c1c2ccccc2nc(COc2ccccc2)n1/N=C/c1ccc(O)cc1O,"inconclusive: 39.8 µM [inhibitor, single point]"
8,CC(=O)O[C@@H](C)C#C[Si](C)(C)c1ccccc1,inactive
9,CCN(CC)c1ccc(NC(=O)CCS(=O)(=O)c2cccc3nsnc23)c(C)c1,"inactive and inconclusive: 39.8 µM [inhibitor, single point]"
10,COc1ccc(-c2c(C)nn3c(N4CCN(Cc5ccccc5)CC4)cc(C)nc23)cc1OC,"inconclusive: 17.8 µM [inhibitor, partial curve]"
11,Cn1c(=O)[nH]c(=O)c2[nH]c(CN3CCN(Cc4ccccc4)CC3)nc21,inactive
12,C(=N\NCc1ccccc1)/c1ccc2nccnc2c1,"inconclusive: 12.6 µM [inhibitor, partial curve]"
13,Fc1ccccc1/C=N/Nc1ncnc2ccccc12,"inconclusive: 28.2 µM [inhibitor, partial curve]"
14,Cc1ccc(CNC(=O)C2CCN(c3nn4cc(-c5ccc(F)cc5)nc4s3)CC2)cc1,inactive
15,COc1ccc2c(c1)Cc1sc(NC(=O)c3ccccc3)nc1-2,"inconclusive: 2.24 µM [inhibitor, full curve]"
16,Cc1ccc(-c2csc(NC(=O)CSC3=NCCS3)n2)cc1,"inconclusive: 3.16 µM [inhibitor, full curve]"
17,CCc1ccc(NC(=O)N2CC=C(c3c[nH]c4ccccc34)CC2)cc1,active: 7.08 µM
18,COc1cc(OC)c(NC(=O)C(C)n2c(=O)cc(-c3ccccc3)c3c(C)nn(C)c32)cc1Cl (stereo unspecified),"inconclusive: 28.2 µM [inhibitor, single point]"
19,O=C(CCCn1cnc([N+](=O)[O-])n1)Nc1cccc(O)c1,"inconclusive: 39.8 µM [inhibitor, single point]"
20,O=C1OC(c2ccccc2)=C/C1=C\N1CCOCC1,"inconclusive: 31.6 µM [inhibitor, single point]"
